For orientation: % Inhibition means the drop in the measured response relative to a control, in per cent.

About 540 (0.36%) of roughly 150,000 compounds showed an effect of 50% or more. Some of the results follow.

In this experiment the test system is Plasmodium falciparum. The experiment can be described thus: Primary screen in NF54 nanoGlo assay, in single point, at 2uM, 72h; a lower Z score goes with more inhibition. Format: functional, Erythrocyte. The settings on record: timepoint 72 hour.
As for `c1coc(-c2nc(CN3CCOc4ccccc43)cs2)c1`, the “% Inhibition” value is on record as -6% and the Z score was 0.54.
For `Cc1cc(C(=O)NC[C@H](O)c2ccc(-c3cccs3)s2)no1` the same measures were 3% and -0.43.
Take `COc1ccc(S(=O)(=O)N2CCC(C)C2)cc1C1(C)NC(=O)NC1=O` (stereo not given): the “% Inhibition” value is -9% and the Z score turned out to be 1.08.
On the same counts, the results for `CS(=O)(=O)NC[C@H]1CCOC2(CCN(C(=O)c3ccc4ccccc4n3)CC2)C1` are -8% and 1.43.
On the same counts, the results for `CCOc1ccc(C2(O)C(C)[N+]3=C(CCC3)N2c2ccc(OC)cc2)cc1` (stereo not given) are -15% and 1.25.
As to `CCOc1ccc(CNC(=O)C2CCN(S(=O)(=O)N(CC(C)C)CC(C)C)CC2)cc1OC`, the “% Inhibition” value was -8% and the Z score turned out to be 1.32.
Turning to `OCc1ccnc(-c2cccc3cnccc23)c1`, the “% Inhibition” value was -7% and the Z score was 1.08.
With `C#CCN(CC#N)C(=O)Cc1ccccc1OC`, the “% Inhibition” value was determined as 1% and the Z score is on record as -0.05.
For `C[C@@H](CCc1cccc(F)c1)C(=O)NCC(=O)O` the same measures were -6% and 0.87.
For `CN1CCCN(CC(=O)NCc2ccccn2)c2cc(F)ccc21` the same measures were -6% and 0.5.
`Nc1n[nH]c(-c2ccc(Br)o2)n1`: the “% Inhibition” value was determined as 4% and the Z score is listed as -0.5.
With `CC(C)c1cc(C(=O)N(C)CCc2cn[nH]c2)n(C)n1`, the “% Inhibition” value is reported as 1% and the Z score is listed as -0.17.
For `COc1cccc(Cn2c(=O)c3sccc3n(CC(=O)Nc3ccc(N(C)C)cc3)c2=O)c1` the same measures were 37% and -1.71.
For `CCCOc1cc(C)c2c(c1C)C[C@H]([C@H](C)C(=O)N1CCC(O)CC1)CC2` the same measures were 9% and -0.99.
For `COc1ccc(NC(=O)c2cn3c(n2)CCCC3)c(OC)c1` the same measures were -5% and 0.76.
On to `O=C(NC1CCCCC1)[C@H]1CC(=O)N(Cc2cccc(Br)c2)C1`, for which the “% Inhibition” value is on record as 11% and the Z score is -1.33.
For `Cc1noc(CN2CCN([C@H]3CCN(Cc4cccc(F)c4F)C3)C2=O)n1` the same measures were 4% and -0.67.
On the same counts, the results for `Cc1nc2c(c(=O)n1C)CN([C@@H](C)C(=O)NCC(C)C)C2` are -8% and 0.99.
For `CC(C)(C)C(=O)NCCC(=O)OC1(C#N)CCC1` the same measures were -10% and 1.41.
Consider `CN(C)C(=O)OCCN(c1ccc(Br)cc1Cl)S(C)(=O)=O`, for which the “% Inhibition” value is -11% and the Z score was found to be 1.27.
For `CC(=O)Nc1ccc(-c2nc(-c3cccnn3)no2)c(C)c1` the same measures were -22% and 2.61.
Turning to `Cc1cc(C(C)C)nc(N2CCN(C(=O)NC3C4CCOC4C34CCC4)CC2)n1` (stereo not given), the “% Inhibition” value was found to be 1% and the Z score is reported as -0.2.
For `CCOC(=O)N(C)C1CCN([C@@H](C)c2nc3ccccc3o2)CC1` the same measures were -7% and 0.89.
With `Cc1noc(C)c1CC(=O)N1CC[C@H](Oc2cccc(F)c2)C1`, the “% Inhibition” value came to 1% and the Z score was -0.18.
`Cc1cccc(OCC(=O)N2CCC[C@H](N(CCCN3CCCC3)C(=O)C(C)C)C2)c1`: the “% Inhibition” value was -6% and the Z score came out at 0.89.
On the same counts, the results for `CCN1C(=O)COc2ccc(-c3noc([C@H]4CC(=O)N(c5ccc(C)cc5)C4)n3)cc21` are 2% and -0.22.
For the molecule `CCN(CC(F)F)C(=O)c1ncccc1Br`, the “% Inhibition” value is given as -4% and the Z score is listed as 0.35.
For `COc1ccc(Cl)cc1C(=O)N1CCCN(c2cc(-c3ccccc3)n[nH]2)CC1` the same measures were -5% and 0.53.
On the same counts, the results for `CC(C)C[C@@H]1NC(=O)[C@@H](c2ccc(O)cc2)NC1=O` are -11% and 1.77.
For `CCn1nc(-c2ccc(C(=O)N(C)Cc3cnn(C)c3)cc2)nc1N(C)C` the same measures were -6% and 0.52.
Turning to `COc1ccc(NC(=O)CN2CCC[C@H](c3ncc[nH]3)C2)cc1`, the “% Inhibition” value worked out at 8% and the Z score was -1.46.
On the same counts, the results for `COc1ccc(Cl)cc1CON=C(N)c1cnn(C)c1` are 13% and -2.33.
As for `Cn1nccc1-c1cncc(CNC(=O)c2ccncc2F)c1`, the “% Inhibition” value was determined as 8% and the Z score is -0.99.
Turning to `O=C(CN1CCN(Cc2ccccc2)CC1)N1c2ccccc2CCc2ccccc21`, the “% Inhibition” value is listed as -7% and the Z score was 0.65.
On the same counts, the results for `COc1nccnc1N1CCNC(=O)C1` are -9% and 1.61.
On the same counts, the results for `O=S(=O)(Nc1cccc(-c2nc3ccccc3s2)c1)c1ccc(F)c(Cl)c1` are -11% and 1.42.
On the same counts, the results for `O=C(Nc1ncc(C2(O)CCCCC2)s1)c1cccc2nccn12` are -6% and 0.9.
Take `CCC(CNC1CCC(=O)NC12CCC2)c1ccccc1` (stereo not given): the “% Inhibition” value is -3% and the Z score was 0.69.
On the same counts, the results for `COC[C@](C)(CCO)NC(=O)Nc1ccc(F)c(Br)c1` are -6% and 0.5.
For `Cc1nn(C)c(Oc2cccnc2)c1CN1CCN(c2cc(F)ccc2F)CC1` the same measures were -9% and 1.58.
For `CC1CC(CNC(=O)NC(C)C2CC2)CCO1` (stereo not given) the same measures were 18% and -2.25.
Consider `CC(C)C[C@H]1CN(C)CCN1C(=O)c1coc(-c2ccccn2)n1`, for which the “% Inhibition” value is -3% and the Z score was 0.3.
As for `O=C(Nc1ccc(Cl)cc1)Nc1ccc(-c2nc(-c3ccccc3)co2)cc1`, the “% Inhibition” value is -9% and the Z score was 1.25.
Turning to `CCN(Cc1cnn(C)c1)C(=O)c1cc(COc2cc(C)c(Cl)c(C)c2)on1`, the “% Inhibition” value was 2% and the Z score is on record as -0.27.
As for `CN(C(=O)c1cccnc1OCc1ccccc1F)c1nncs1`, the “% Inhibition” value is listed as 2% and the Z score was -0.4.
Regarding `CC(C)(C)n1nnc(C(=O)N2CCC[C@H]2C(F)(F)F)n1`, the “% Inhibition” value is recorded as -1% and the Z score amounted to 0.13.
For the molecule `C=CCNC(=O)[C@@H]1C(=O)Nc2nc3ccccc3nc21`, the “% Inhibition” value was -7% and the Z score is recorded as 1.05.
For `CN(C)c1ncccc1CNC[C@H]1CCOC1` the same measures were -18% and 2.55.
With `CCNC(=O)[C@H](C)NC(=O)c1cccc(F)c1`, the “% Inhibition” value is -2% and the Z score was found to be 0.19.
For `COC[C@H](C)N1CCN(S(C)(=O)=O)CC1` the same measures were -2% and 0.27.
For `O=C(c1cn(C2CN(C(=O)[C@@H]3CCCO3)C2)nn1)N1CCOCC1` the same measures were -9% and 1.65.
For `COc1ccccc1CN(C(=O)NCCc1nc(C2CC2)no1)C1CC1`, the “% Inhibition” value is -14% and the Z score is 2.01.
With `Cc1cccc(NC(=O)c2nn(-c3ccc(F)cc3)c3ccccc3c2=O)c1`, the “% Inhibition” value is given as -1% and the Z score came to 0.12.
On the same counts, the results for `CCNC(=O)N(CCN1CCOCC1)Cc1cc(Cl)ccc1OCc1nc(CO)cs1` are 14% and -1.37.
On the same counts, the results for `O=C(c1cc(C(=O)N2CC[C@@H]3CCC[C@@H]32)c[nH]1)N1CCCC1` are -21% and 2.15.
On the same counts, the results for `CCn1cc(CNC(=O)Nc2c(C)c(-c3ccccc3)nn2C)c(C)n1` are -7% and 1.25.
Turning to `O=C(Cc1cccs1)N[C@H]1CCCCNC1=O`, the “% Inhibition” value is recorded as 2% and the Z score was -0.44.
On the same counts, the results for `O=C(NC1CC1)N1CCN(c2ncc(Br)cn2)CC1` are -14% and 1.25.
For `c1ccc(CN2CCOCCOCCOCCOCCOCCOCC2)cc1` the same measures were -9% and 1.27.
Take `CCN(CCC(=O)NC(N)=O)Cc1cc(Br)ccc1F`: the “% Inhibition” value is given as -6% and the Z score is 0.89.
On the same counts, the results for `CC1=CCCC(C)C1CN1CC(C(N)=O)O[C@H](C)C1` (stereo not given in full) are 3% and -0.44.
For `Cc1cc(C)nc(NS(=O)(=O)c2ccc(NC(=O)c3cc(-c4ccc(C)c(F)c4)on3)cc2)n1` the same measures were -7% and 1.32.
On the same counts, the results for `COC(=O)c1ccc(NC(=O)[C@@H]2CCCCN2)cc1` are -8% and 0.72.
Consider `CCC1(CC)C(NC(=O)C2(C#N)C(C#N)C2(C)C)CC1OC` (stereo not given), for which the “% Inhibition” value is reported as -11% and the Z score is recorded as 1.65.
On the same counts, the results for `Cc1cc(C(=O)NC2CCS(=O)(=O)CC2)nc(C)n1` are 0% and 0.09.
As for `Cc1cc(S(=O)(=O)NCCc2ccsc2)sc1Cl`, the “% Inhibition” value is -13% and the Z score is 1.24.
As for `O=S(=O)(c1cccc(-c2nnco2)c1)N1CCCC1`, the “% Inhibition” value is recorded as -14% and the Z score turned out to be 1.55.
For `Cc1nc(C(=O)NC(C)(C)c2cccc(Cl)c2F)c(=O)[nH]c1C` the same measures were -14% and 2.99.
On the same counts, the results for `Cc1ccc(-n2nc(C)c3sc(N4CCC[C@H](C(=O)NCc5c[nH]nc5C)C4)nc32)cc1` are -13% and 1.67.
On to `COc1cccc(-c2nc3ccc(-c4ccccc4)cn3c2CCC(=O)Nc2ccccc2)c1`, for which the “% Inhibition” value was -5% and the Z score is reported as 0.45.
On the same counts, the results for `CC1CCN(C(=O)c2snc(-c3cccc(F)c3)c2N)CC1` are -15% and 1.78.
As for `COc1ccc(-c2nc(Cn3nc(C)c4c(C)onc4c3=O)c(C)o2)cc1OC`, the “% Inhibition” value is reported as -11% and the Z score was determined as 1.06.
Consider `Cc1ccc(OC2CCCN(C(=O)C3CC=CCC3)C2)nn1` (stereo not given), for which the “% Inhibition” value was -10% and the Z score came to 1.7.
On to `O=C(c1ccc2ccccc2c1)N(Cc1ccco1)C1CC1`, for which the “% Inhibition” value was -7% and the Z score amounted to 0.76.
On the same counts, the results for `Cc1ccncc1N1CCN(C(=O)c2cc[nH]c(=O)c2)CC1` are -12% and 1.98.
Take `C[C@H]1CS(=O)(=O)C[C@H]1NC(=O)c1cc(F)cc2[nH]nnc12`: the “% Inhibition” value is -7% and the Z score is 1.23.
On the same counts, the results for `CNC(=O)[C@@H]1C[C@H](Oc2ccccc2)CN1C1CCN(C(=O)c2cnn(C)c2)CC1` are -5% and 0.61.
Regarding `COc1ccc(CCNC(=O)N2C(=O)c3ccccc3C2=O)cc1OC`, the “% Inhibition” value came out at 1% and the Z score is -0.13.
On the same counts, the results for `CCOc1ccccc1CNC(=O)c1nc(C2CCC2)oc1C` are -1% and 0.09.
For `Cc1cc(C(=O)N2CC[C@@H]3OCc4cccc(c4)Oc4cccc(c4)CCC(=O)N(C)CC(=O)N[C@@H]3C2)nn1C`, the “% Inhibition” value is on record as 0% and the Z score is on record as -0.05.
For `Cc1ncn(C[C@H](O)COCc2ccccc2)c(=O)c1C` the same measures were -4% and 0.53.
On the same counts, the results for `c1cc(OC23CCCN(CC2)C3)cc(-c2nnco2)c1` (stereo not given) are -6% and 0.77.
As for `C[C@H]1CCc2[nH]c3ccc(C(=O)N4CCC(C(=O)Nc5ccc6c(c5)OCO6)CC4)cc3c2C1`, the “% Inhibition” value was -5% and the Z score was determined as 0.98.
For `CC(=O)N1CCN(C(=O)CCc2c(-c3ccc(Cl)cc3)nc3ccc(-c4cccc(C(F)(F)F)c4)cn23)CC1`, the “% Inhibition” value is on record as -14% and the Z score came to 1.68.
For the molecule `CC(C)NC(=O)NC1C2C3CCC(C3)C12` (stereo not given), the “% Inhibition” value is reported as -3% and the Z score stood at 0.57.

For the origin of these results see ChEMBL document CHEMBL4888484, “Replenishing the malaria drug discovery pipeline: Screening and hit evaluation of the MMV Hit Generation Library 1 (HGL1) against asexual blood stage Plasmodium falciparum ,using a nano luciferase reporter read-out” (2022).
